Measured values reported in PubChem BioAssay AID360 (National Center for Advancing Translational Sciences (NCATS), 2006).
The whole screen tested about 48,000 compounds, of which about 550 (1.1%) were called active. Inconclusive results (about 4%) are left out. Rule as the data show it: active = potency below about 15 µM; inconclusive = mostly about 16 µM to 33 µM; inactive = weaker than that. This is one part of the list.

Biological target: Lysosomal acid glucosylceramidase (Homo sapiens) (UniProt P04062)
Sequence of UniProt P04062 (P04062 whole entry, looked up): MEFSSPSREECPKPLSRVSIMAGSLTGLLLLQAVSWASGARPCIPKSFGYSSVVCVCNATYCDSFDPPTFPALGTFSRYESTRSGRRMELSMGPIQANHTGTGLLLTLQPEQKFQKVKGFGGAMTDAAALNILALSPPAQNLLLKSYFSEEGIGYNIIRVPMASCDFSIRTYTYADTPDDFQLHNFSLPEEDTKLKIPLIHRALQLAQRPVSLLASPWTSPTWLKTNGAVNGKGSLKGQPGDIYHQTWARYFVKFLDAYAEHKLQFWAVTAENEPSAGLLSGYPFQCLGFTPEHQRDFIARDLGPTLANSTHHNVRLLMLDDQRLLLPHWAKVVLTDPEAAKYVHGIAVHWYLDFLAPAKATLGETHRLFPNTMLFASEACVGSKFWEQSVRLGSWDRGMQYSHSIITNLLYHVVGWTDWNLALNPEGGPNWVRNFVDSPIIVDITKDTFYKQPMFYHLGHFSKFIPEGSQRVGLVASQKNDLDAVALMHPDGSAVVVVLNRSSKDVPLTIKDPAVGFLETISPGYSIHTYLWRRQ
Experiment: Glucocerebrosidase;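 also: the screen sought inhibitors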
Conditions: purified enzyme, resorufin glucoside fluorescence (screen aimed at inhibitors), 20 min
In short: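 Compounds titrated against 0.2 nM normal enzyme, 30 uM resorufin beta-D-glucopyranoside substrate, citrate/phosphate buffer with taurocholate and tween-20, pH 5.9. Reaction ran 20 min at room temperature; fluorescence (Ex 548/Em 600) gave AC50.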
Potency is read from the fitted curve at half-maximal effect.

Potency, inactive:
COC(=O)c1ccc(Cn2cc(Cl)cn2)cc1 > 76.9 µM, c1ccc(OCc2nc3ccccc3[nH]2)cc1 > 76.9 µM, Cc1ccc(S(=O)(=O)N(C)Cc2cc3ccccc3[nH]c2=O)cc1 > 76.9 µM, CCc1ccccc1NC(=O)c1cnccn1 > 76.9 µM, COc1ccc(OC)c(NC(=O)COC(=O)c2ccc(S(=O)(=O)N3CCOCC3)cc2)c1 > 76.9 µM, COC(=O)c1ccc(COc2nc(C)cc(C)c2C#N)o1 > 76.9 µM, CCc1nc(SCC(=O)NCCc2ccccc2)n[nH]1 > 76.9 µM, O=C(Nc1ccccc1)c1ccccc1OCC(O)CN1C(=O)c2ccccc2S1(=O)=O (configuration not stated) > 76.9 µM, CCn1c(=N)c(C(=O)NCc2cccnc2)cc2c(=O)n3cccc(C)c3nc21 > 76.9 µM, O=C(NCc1cccs1)Nc1ccc2c(c1)OCO2 > 76.9 µM, COc1ccccc1-c1nnc(Nc2nc3c(OC)cccc3s2)o1 > 76.9 µM, CCOc1ccccc1Nc1nc(N)nc(CSc2nncn2C)n1 > 76.9 µM, Cc1ccc(N2CC(C(=O)Nc3ccc4c(c3)OCO4)CC2=O)cc1 (configuration not stated) > 76.9 µM, CCOC(=O)C1=C(C)NC(=O)NC1C (configuration not stated) > 76.9 µM, Cn1c(=O)n(CC(=O)O)c(=O)c2c1nc1n2CCS1 > 76.9 µM, COc1ccc(C2c3c(oc4ccccc4c3=O)C(=O)N2CCCN2CCOCC2)cc1 (configuration not stated) > 76.9 µM, Cc1nc(NC2=NCN(Cc3ccc4c(c3)OCO4)CN2)nc2ccccc12 > 76.9 µM, CCOC(=O)c1cnc2sc3c(n2c1=O)CCCC3 > 76.9 µM, CCOC(=O)c1cc(-c2ccc(F)cc2)n(CC(=O)N2CCCC2)c1C > 76.9 µM, Cc1nn(-c2nc3ccccc3n2Cc2ccccc2)c2c1C(=O)CC(C)(C)C2 > 76.9 µM, CSc1nsc(NC(=O)Cc2ccccc2)n1 > 76.9 µM, CCNc1nc(SCCOc2ccccc2)nc(N(C)C)n1 > 76.9 µM, COc1ccc(C)cc1Cn1c(S(C)(=O)=O)nc2ccccc21 > 76.9 µM, Cc1ccc(NC(=O)Cn2c(=O)n(CCCC(=O)NCc3ccco3)c(=O)c3ccccc32)cc1 > 76.9 µM, COc1cccc(CNCCSc2nnnn2C)c1 > 76.9 µM, O=c1c2cnn(-c3ccccc3)c2ncn1/N=C/c1ccncc1 > 76.9 µM, CCn1c(SCC(=O)NCc2ccco2)nnc1-c1cccs1 > 76.9 µM, N#CCCCSc1nnnn1-c1cccc(Cl)c1 > 76.9 µM, N#Cc1cn(CCOc2ccccc2F)c2ccccc12 > 76.9 µM, Cc1ccc(-c2cn(S(=O)(=O)c3cccc4nsnc34)nc2N)cc1 > 76.9 µM, Cc1ccc(S(=O)(=O)N(CC(=O)N2CCOCC2)CC(=O)N2CCOCC2)cc1 > 76.9 µM, Cc1ccc(Cn2ccc(NC(=O)c3noc4c3CCCC4)n2)cc1 > 76.9 µM, CCN(Cc1cc2ccc(C)cc2[nH]c1=O)C(=O)c1cccnc1 > 76.9 µM, C#Cc1ccc(C(=O)Nc2cc(C(N)=O)ccc2N2CCOCC2)cc1 > 76.9 µM, O=C(COc1nc2ccccc2nc1N1CCOCC1)N1CCc2ccccc21 > 76.9 µM, N#CCSc1nc2c(cc1C#N)CCCC2 > 76.9 µM, Cn1c(=O)c2cnc(N3CCOCC3)nc2n(C)c1=O > 76.9 µM, CN(C)S(=O)(=O)c1ccc2nc(NC(=O)c3cccnc3)sc2c1 > 76.9 µM, O=C(NCc1cccs1)C1CCN(S(=O)(=O)c2ccc3c(c2)OCCO3)CC1 > 76.9 µM, C/C(=N\O)c1ccccc1C(=O)O > 76.9 µM, COc1ccc(C2C(C(=O)N3CCCC3)c3cc(OC)c(OC)cc3C(=O)N2C)cc1OC (configuration not stated) > 76.9 µM, c1ccc(-n2nnnc2Oc2cccc3cccnc23)cc1 > 76.9 µM, CCCCCCNC(=O)C(C#N)c1nc2ccccc2nc1N1CCOCC1 (configuration not stated) > 76.9 µM, O=C(NCCN1CCN(c2ccccc2)CC1)c1ccc(NC(=O)C2CCCO2)cc1 (configuration not stated) > 76.9 µM, O=C(NCc1ccc2c(c1)OCO2)c1ccc(CN2CCOCC2)cc1 > 76.9 µM, COCCCNC(=O)c1ccc(N(C)S(=O)(=O)c2ccc(OC)cc2)cc1 > 76.9 µM, COc1cc(C)c(Cl)cc1S(=O)(=O)NCC1CCCO1 (configuration not stated) > 76.9 µM, CC(=O)C1=C(C)OC(N)=C(C#N)C1c1ccco1 (configuration not stated) > 76.9 µM, Cc1ccc(C2C=C(c3ccc4c(c3)OCO4)Nc3ncnn32)cc1 (configuration not stated) > 76.9 µM, Cc1ccc(-c2nnc(CSc3nc(C)nc4sc(C)c(C)c34)o2)cc1 > 76.9 µM, Cn1c(SCC(=O)NC2CCCC2)nc2cccnc21 > 76.9 µM, COCCOC(=O)c1c(NC(=O)CN2CCOCC2)sc(C(N)=O)c1C > 76.9 µM, O=C(CCN1C(=O)c2ccccc2C1=O)NC1=NCCS1 > 76.9 µM, O=C(Cc1ccc(-c2ccccc2)cc1)N1CCOCC1 > 76.9 µM, Cn1c2c(c(=O)n(C)c1=O)C(c1ccc(Br)cc1)Nc1ccccc1O2 (configuration not stated) > 76.9 µM, COc1cc(NC(=O)c2ccc(Cl)cc2)c(OC)cc1NC(=O)CN1CCOCC1 > 76.9 µM, CN(C(=O)COC(=O)c1ccccc1Nc1ccccc1)C1CCS(=O)(=O)C1 (configuration not stated) > 76.9 µM, CCOC(=O)c1[nH]c(C)c(C(=O)N2CCN(C(=O)OCC)CC2)c1CC > 76.9 µM, N=c1n(CCO)c2ccccc2n1Cc1ccccc1Cl > 76.9 µM, COc1cc2c(cc1OC)CN(Cc1cc(=O)n3cc(C)ccc3n1)CC2 > 76.9 µM, CC(=O)Nc1nc2c(ncn2COCCOC(C)=O)c(=O)[nH]1 > 76.9 µM, COc1ccc2c(c1)-c1nc(NC(=O)c3ccco3)sc1CC2 > 76.9 µM, O=C(CSc1nc(N2CCCCC2)nc(N2CCCCC2)n1)NC1CCCCC1 > 76.9 µM, Cc1occc1C(=O)Nc1c(F)cc(F)cc1Br > 76.9 µM, Cc1ccc(CNC(=O)c2ccccc2NC(=O)CSc2nnnn2C)cc1 > 76.9 µM, CCOC(=O)c1[nH]c(COC(=O)c2ccccc2NC(=O)c2ccco2)c(C(=O)OCC)c1C > 76.9 µM, CCOC(=O)c1ccc(NS(=O)(=O)c2cc(C)ccc2OC)cc1 > 76.9 µM, Cc1ccc(S(=O)(=O)c2nc(-c3ccco3)oc2SCC(=O)NCC2CCCO2)cc1 (configuration not stated) > 76.9 µM, CCCCCCC1/C(=N/O)CCC1C(=O)OC (configuration not stated) > 76.9 µM, O=C1CC(c2ccc(S(=O)(=O)N3CCCCC3)cc2)CN1 (configuration not stated) > 76.9 µM, N#C/C(C(=O)Oc1ccccc1)=C1\C=CC=CN1 > 76.9 µM, COC(=O)c1ccc(-c2cc(C(=O)O)c3cc4c(cc3n2)OCCO4)cc1 > 76.9 µM, CC1CCCCC1NC(=O)C1CCN(S(=O)(=O)N2CCOCC2)CC1 (configuration not stated) > 76.9 µM, COc1ccc(C2C(C#N)=C(N)OC3=C2C(=O)CCC3)c(OC)c1OC (configuration not stated) > 76.9 µM, CCC(C)NC(=O)C1CCN(S(=O)(=O)N2CCCC2)CC1 (configuration not stated) > 76.9 µM, Cn1c(SCC(=O)N2CCCCCC2)nc2c([nH]c3ccccc32)c1=O > 76.9 µM, COc1ccc(C(C)=O)c2c(O)cccc12 > 76.9 µM, CCn1c(SCC(=O)NCC(=O)Nc2ccc(F)cc2)nnc1-c1cccs1 > 76.9 µM, O=C(c1ccco1)N1CCN(CCCCN2C(=O)c3ccccc3C2=O)CC1 > 76.9 µM, O=C(O)CCC(=O)N1CCC(C(=O)c2cccc(Cl)c2)CC1 > 76.9 µM, COc1ccccc1NC(=O)CSC1CC(=O)N(c2ccc3c(c2)OCO3)C1=O (configuration not stated) > 76.9 µM, COc1ccc(-c2nnn(Cc3nc(N)nc(N4CCCCC4)n3)n2)cc1 > 76.9 µM, O=C1CSc2ccccc2N1Cc1ccc(F)cc1 > 76.9 µM, O=C(NCc1ccco1)c1cccnc1-c1nc2ccccc2s1 > 76.9 µM, O=C(CCCOc1ccccc1)N1CCc2ccccc2C1 > 76.9 µM, CCOC(=O)N1CCN(C2=Nc3cccc4cccc2c34)CC1 > 76.9 µM, Cc1ncoc1C(=O)Nc1ccc2c(c1)OCCO2 > 76.9 µM, CCOC(=O)Cn1nnnc1CN(Cc1ccc(OC)cc1)Cc1cc2cc(CC)ccc2[nH]c1=O > 76.9 µM, CCCc1cc(=O)[nH]c(SCC(=O)N2CCC(C(=O)OCC)CC2)n1 > 76.9 µM, CCOC(=O)N1CCN(c2nc3ccccc3nc2C(C#N)C(=O)NCCc2ccccc2)CC1 (configuration not stated) > 76.9 µM, N=c1n(CCN2CCCCC2)c2ccccc2n1CC(O)c1cccc(Br)c1 (configuration not stated) > 76.9 µM, COC(=O)c1ccc(COc2cc(O)c3c(c2)OC(C)(C)CC3=O)cc1 > 76.9 µM
